According to PubChem BioAssay AID504332 (National Center for Advancing Translational Sciences (NCATS), 2011):
Values joined by “and” are separate entries in the source; they are usually repeats but may differ in a detail not shown here. Identical values can stand only once. Among all 350,000 compounds or so, about 31,000 (8.9%) were called active. The inconclusive results got no clear call from the source; some entries with a clear call stand among them for comparison. Calls follow the shape of the dose curve; as a rule, active = well fitted inhibition curve with a large enough effect; inconclusive = small, poorly fitted or top-dose-only effect; inactive = no such curve, though single readings can be large or run the other way. Potencies beside an inconclusive call are fits to weak or partial responses and may not hold up.

These compounds were tested against Histone-lysine N-methyltransferase EHMT2 (Homo sapiens) (UniProt Q96KQ7) (assay: qHTS Assay for Inhibitors of Histone Lysine Methyltransferase G9a). Conditions: G9a H3K9 monomethylation, AlphaScreen, 2 h; activity, negative = inhibition: at 59 µM (top of the series) unless noted.
Chain of UniProt Q96KQ7 (Q96KQ7 whole entry, looked up): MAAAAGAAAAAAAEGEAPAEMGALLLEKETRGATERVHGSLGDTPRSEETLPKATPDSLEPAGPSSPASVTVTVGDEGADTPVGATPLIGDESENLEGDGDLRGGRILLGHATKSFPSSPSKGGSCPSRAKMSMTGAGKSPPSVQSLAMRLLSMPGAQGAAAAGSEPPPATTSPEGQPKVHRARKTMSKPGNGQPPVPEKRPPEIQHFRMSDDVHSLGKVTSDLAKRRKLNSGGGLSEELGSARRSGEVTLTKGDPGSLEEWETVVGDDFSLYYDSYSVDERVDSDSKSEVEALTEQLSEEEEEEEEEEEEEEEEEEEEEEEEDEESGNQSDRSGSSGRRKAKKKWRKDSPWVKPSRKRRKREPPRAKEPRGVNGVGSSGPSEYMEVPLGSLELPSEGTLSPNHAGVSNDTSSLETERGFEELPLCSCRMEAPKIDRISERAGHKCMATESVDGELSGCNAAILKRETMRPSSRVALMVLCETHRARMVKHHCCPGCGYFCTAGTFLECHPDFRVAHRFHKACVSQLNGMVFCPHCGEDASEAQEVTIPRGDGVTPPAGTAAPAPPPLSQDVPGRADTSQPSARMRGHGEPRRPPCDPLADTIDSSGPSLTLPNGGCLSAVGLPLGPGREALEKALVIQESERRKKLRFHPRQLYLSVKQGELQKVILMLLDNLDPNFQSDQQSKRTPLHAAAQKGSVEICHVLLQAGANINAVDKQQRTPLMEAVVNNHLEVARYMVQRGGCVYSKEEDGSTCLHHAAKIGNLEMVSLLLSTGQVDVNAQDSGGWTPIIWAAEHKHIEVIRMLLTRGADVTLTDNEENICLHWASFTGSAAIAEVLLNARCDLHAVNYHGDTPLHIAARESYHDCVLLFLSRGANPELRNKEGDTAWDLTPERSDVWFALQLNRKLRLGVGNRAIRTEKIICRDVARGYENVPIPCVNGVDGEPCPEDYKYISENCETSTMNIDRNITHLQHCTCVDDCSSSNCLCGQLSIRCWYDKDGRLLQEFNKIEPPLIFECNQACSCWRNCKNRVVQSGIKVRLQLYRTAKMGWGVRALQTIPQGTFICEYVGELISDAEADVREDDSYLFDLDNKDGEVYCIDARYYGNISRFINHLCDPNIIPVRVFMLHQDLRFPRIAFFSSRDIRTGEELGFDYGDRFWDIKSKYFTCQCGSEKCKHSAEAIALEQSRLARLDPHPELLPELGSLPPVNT
Procedure, shortened: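 Enzyme 20 nM + cpd, 15 min RT; add b-H3K9 pep 500 nM / SAM 20 uM; 2 h RT; anti-H3K9me1 Ab 0.5 ug/mL + SA donor / anti-rabbit acceptor beads 20 ug/mL each, 10 min; AlphaScreen read.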
% is scaled to controls: 0 for no effect and ±100 for the full control effect; potency is read from the fitted curve at half-maximal effect; tags tell the direction and shape of the fitted curve.
Also: nearly all actives have a fitted effect of over 75% in size.

SMILES | Potency | activity, negative = inhibition
O=C(CCO)c1ccc(O)cc1 | inconclusive: 3.55 µM [inhibitor, single point] | –
Cn1ncc(Cl)c1C(=O)N/N=C/c1cccc(OC2CSC2)c1 | – | inactive: 0.567% [at 102 µM]
Cc1nn(C)c(C(=O)NNC(=S)NC2CCCCC2)c1Br | inconclusive: 56.2 µM [inhibitor, partial curve] | –
Cc1ccc(N(CC(=O)NCc2ccc(Cl)cc2)S(C)(=O)=O)cc1 | – | inactive: -10.8% [at 102 µM]
O=[N+]([O-])c1ccc(Sc2nnnn2-c2ccccc2)nc1 | – | inactive: -34% [at 102 µM]
CCN(CC(=O)Nc1ccc(NC(C)=O)cc1)C(=O)CCCN1C(=O)c2ccccc2C1=O | inconclusive: 50.1 µM [inhibitor, partial curve] | –
Cc1ccc(-c2nc(CN3CCCC(C(=O)N4CCOCC4)C3)c(C)o2)cc1 (centres undefined) | – | inactive: 80.1% [at 102 µM]
COc1ccc(S(=O)(=O)N(c2onc(C)c2Cl)S(=O)(=O)c2ccc(OC)c(OC)c2)cc1OC | – | inconclusive: -116% [inhibitor]
Cc1ccc(NC(=O)CN(C)C(=O)c2ccc(OCc3c(C)noc3C)cc2)cc1 | inconclusive: 89.1 µM [inhibitor, single point] | –
COc1cccc(C2C(C#N)=C(N)Oc3cc(N)ccc32)c1OC (centres undefined) | inconclusive: 89.1 µM [inhibitor, partial curve, poor fit] | –
O=C(Nc1nc(-c2ccc(F)c(F)c2)cs1)c1ccc(OCC2CCCO2)cc1 (centres undefined) | inconclusive: 89.1 µM [inhibitor, single point] | –
COc1ccc([C@@H]2[C@@H]3C(=O)N(C(C)(C)C)C(=O)[C@@H]3[C@]3(C)C(=O)N(c4cccc(Cl)c4)C(=O)N23)cc1 | – | inactive: 12.4% [at 12.7 µM]
O=C(CSc1nnnn1C1CC1)Nc1ccc(S(=O)(=O)N2CCOCC2)cc1 | – | inactive: 20.9%
N#C/C(=C(/O)CSc1n[nH]c(N)n1)c1nc2ccccc2[nH]1 | – | inactive: 0.316% [at 12.7 µM]
CCOC(=O)c1c(NC(=O)COc2ccc(F)cc2)sc2c1CCC(C)C2 (centres undefined) | inconclusive: 11.2 µM [inhibitor, partial curve, poor fit] | –
O=C(O)C1CCN(Cc2cccnc2)CC1 | inconclusive: 79.4 µM [inhibitor, single point] | –
COc1ccc2[nH]cc(/C=C/c3cc[n+](C)cc3)c2c1 | inconclusive: 89.1 µM [inhibitor, single point] | –
O=C(COC(=O)CC1SC(N2CCCC2)=NC1=O)Nc1c(F)c(F)c(F)c(F)c1F (centres undefined) | – | inactive: -4.13% [at 2.33 µM]
CC(=O)O[C@H]1C(=O)[C@@]2(C)C([C@H](OC(=O)c3ccccc3)[C@]3(O)C[C@H](OC(=O)[C@H](O)[C@@H](NC(=O)c4ccccc4)c4ccccc4)C(C)=C1C3(C)C)[C@]1(OC(C)=O)CO[C@@H]1C[C@H]2O (some centres undefined) | inconclusive: 100 µM [inhibitor, single point] | –
CCCCC[C@H](O)/C=C/[C@H]1[C@H](O)CC(O)[C@@H]1C/C=C\CCCC(=O)O (some centres undefined) | – | inactive: 37.6%
CCOC(=O)N1CCN(C(=O)CN2C(=O)COc3ccc(C(C)(C)C)cc32)CC1 | inconclusive: 11.2 µM [inhibitor, partial curve, poor fit] | –
Cc1nn(-c2ccccc2)c2c1C(c1ccco1)C(C#N)=C(N)O2 (centres undefined) | active: 39.8 µM | –
CCOC(=O)C1CCCCN1Cc1ccc(F)c(Br)c1 (centres undefined) | active: 22.4 µM | –

SMILES | Potency | activity, negative = inhibition
CCOC(=O)C(=Cc1ccc(-n2ccnc2)cc1)C(=O)OCC | active: 44.7 µM | –
O=C(O)Cc1sc(N/N=C\c2ccncc2)nc1-c1ccccc1 | active: 2 µM | –
CC(C)C[C@H](NC(=O)Nc1ccc(Oc2ccccc2)cc1)C(=O)O | inconclusive: 89.1 µM [inhibitor, single point] | –
COc1ccc(F)cc1S(=O)(=O)N1CCC2(CC1)OCCN2S(=O)(=O)c1ccccc1 | inconclusive: 79.4 µM [inhibitor, partial curve, poor fit] | –
Cc1ccccc1OC1=NS(=O)(=O)c2ccccc21 | inconclusive: 44.7 µM [inhibitor, partial curve, poor fit] | –
Cc1cc(=O)[nH]c(SCC(=O)NCc2ccco2)n1 | inconclusive: 39.8 µM [inhibitor, single point] | –
CCOC(=O)c1[nH]cnc1C(=O)Nc1ccc(F)cc1 | active: 3.55 µM and active: 44.7 µM | –
CCOc1ccc(N2CC(C(=O)Nc3cccc(S(=O)(=O)N4CCCC4)c3)CC2=O)cc1 (centres undefined) | inconclusive: 56.2 µM [inhibitor, partial curve, poor fit] | –
N#C/C(=C\c1ccc(-c2cc(Cl)ccc2Cl)o1)C(=O)Nc1ccccc1C(=O)O | inconclusive: 3.55 µM [inhibitor, full curve] | –
Cc1ccc2cccc(NC(=O)C(C)(C)Oc3ccc(Br)cc3)c2n1 | – | inactive: 6.03%
CCCS(=O)(=O)Nc1cc2c(cc1NCc1ccccc1)n(C)c(=O)n2C | active: 15.8 µM | –
Cn1nc(-c2ccc(C(=O)NC3CCCCC3)cc2)c2ccccc2c1=O | – | inactive: -10.4% [at 102 µM]
S=C(NCCC1=CCCCC1)NCc1ccco1 | inconclusive: 50.1 µM [inhibitor, partial curve, poor fit] | –
COc1ccc(NC(=O)C(c2ccc(OC)cc2)N(C)C(=O)CC2NC(=O)NC2=O)cc1 (centres undefined) | – | inactive: 7.63% [at 102 µM]
Nc1ccccc1NC1CCCCC1 | active: 50.1 µM | –
COc1ccc(CC(=O)N/N=C(\C)CC(=O)Nc2ccc(N(C)C)cc2)cc1OC | inconclusive: 79.4 µM [inhibitor, single point] | –
COc1ccc(/C(N)=N/OC(=O)c2cccc([N+](=O)[O-])c2C)cc1 | inconclusive: 28.2 µM [inhibitor, partial curve, poor fit] | –
CCCC(=O)Nc1nc(-c2ccc3c(c2)OCCO3)cs1 | inconclusive: 39.8 µM [inhibitor, partial curve, poor fit] | –
Cc1cc(C)cc(OCC(=O)N2Cc3ccccc3CC2C(=O)O)c1 (centres undefined) | inconclusive: 70.8 µM [inhibitor, single point] | –
COc1ccc(NC(=O)CC2Nc3ccccc3NC2=O)c([N+](=O)[O-])c1 (centres undefined) | active: 50.1 µM | –
CN(C(=O)CSc1nnc(NC2CCCCC2)s1)C1CCS(=O)(=O)C1 (centres undefined) | inconclusive: 5.01 µM [inhibitor, partial curve, poor fit] | –
COc1ccc(-n2c(Cc3cccn3C)nnc2SCC(=O)Nc2ccc(Cl)cc2)cc1 | inconclusive: 39.8 µM [inhibitor, single point] | –
O=C(CSc1nnc(-c2ccncc2)n1Cc1ccco1)N1c2ccccc2Sc2ccc(Cl)cc21 | inconclusive: 35.5 µM [inhibitor, single point] | –

SMILES | Potency | activity, negative = inhibition
Cc1ccc(-c2[nH]nc3c2C(c2ccoc2)C(C#N)=C(N)O3)cc1C (centres undefined) | inconclusive: 2.24 µM [inhibitor, partial curve] | –
Cc1cc(C)c2cc(CN(Cc3ccco3)C(=O)NCc3ccccc3)c(=O)[nH]c2c1 | inconclusive: 70.8 µM [inhibitor, single point] | –
O=C(O)CSc1nnc(-c2cccs2)n1-c1ccc(Cl)cc1 | inconclusive: 1.58 µM [inhibitor, full curve, poor fit] | –
Cc1cc(=O)n(-c2ccc(C(=O)O)cc2)[nH]1 | inconclusive: 1.58 µM [inhibitor, full curve, poor fit] | –
O=C(CSc1nnc(-c2ccccc2F)n1C1CCCCC1)N1CCCC1 | – | inactive: -5.57% [at 102 µM]
CC(=O)Nc1ccc(Sc2ccccc2C(=O)O)cn1 | inconclusive: 1.41 µM [inhibitor, single point] | –
COCc1ccc(CN2CCc3c([nH]c4ccccc34)C2C(C)(C)C)o1 (centres undefined) | inconclusive: 79.4 µM [inhibitor, partial curve, poor fit] | –
CCN(CCCNC(=O)Cn1cc2c(n1)CCCC2)c1cccc(C)c1 | inconclusive: 10 µM [inhibitor, partial curve, poor fit] | –
c1ccc(-c2nn3nnnc3c3ccccc23)cc1 | inconclusive: 79.4 µM [inhibitor, partial curve, poor fit] | –
Cn1ccnc1-c1nc2ccccc2[nH]c1=O | active: 2.51 µM | –
C=CCn1c(SCc2nc3ccccc3c(=O)[nH]2)nc2ccccc2c1=O | active: 7.94 µM | –
CCCn1c(C)cc(C(=O)COC(=O)c2c(C)nn(-c3ccccc3)c2C)c1C | inconclusive: 79.4 µM [inhibitor, single point] | –
COc1cccc(C(=O)c2cn(CC(=O)Nc3cccc(C)c3C)c3nc(C)ccc3c2=O)c1 | – | inactive: -2.15%
COC(=O)C1CCN(C(=O)CN(C)Cc2ccc(C(C)(C)C)cc2)CC1 | inconclusive: 39.8 µM [inhibitor, single point] | –
Cc1cc(C[n+]2cc(Br)ccc2N)c2ncccc2c1 | – | inactive: 17.7%
CCOC(=O)Cn1c(=O)oc2cc(S(=O)(=O)Nc3ccc(N(CC)CC)cc3C)ccc21 | active: 39.8 µM | –
COc1ccc(-n2c(Cn3nnc4ccccc43)n[nH]c2=S)cc1 | active: 8.91 µM | –
CCOC(=O)CSc1nc2ccc(NC(=O)c3ccccc3)cc2s1 | inconclusive: 39.8 µM [inhibitor, partial curve, poor fit] | –
COc1cc(-c2nnc(SCCOc3ccc(C)c(Cl)c3)o2)cc(OC)c1OC | – | inactive: 3.55%
CCOC(=O)C1(Cc2ccc(Cl)cc2)CCN(C(=O)c2sc(C)nc2C)CC1 | – | inactive: -6.58% [at 102 µM]
CCN1C(=O)/C(=C2/Sc3ccccc3N2CC)S/C1=N\c1ncn[nH]1 | – | inactive: -28% [at 102 µM]
Cc1ccc(CN2CCc3nc(SCC(=O)Nc4cccc(C)c4C)[nH]c(=O)c3C2)cc1 | – | inactive: -5.89%
N#Cc1cccc(NC(=O)Cn2cnc(S(=O)(=O)N3CCOCC3)c2)c1 | inconclusive: 89.1 µM [inhibitor, single point] | –
